Source: PubChem BioAssay AID651820 (National Center for Advancing Translational Sciences (NCATS), 2012)
Values joined by “and” are separate entries in the source; they are usually repeats but may differ in a detail not shown here. Identical values can stand only once. The campaign covered roughly 340,000 compounds. About 12,000 (3.5%) were called active. Inconclusive means that the source gave no clear call. Such entries were picked first, then a sample of the others. The call rests on the fitted dose curve; in most records, active means well fitted inhibition curve with a large enough effect; inconclusive means small, poorly fitted or top-dose-only effect, or another doubt; inactive means no such curve, though single readings can be large or run the other way. A potency beside an inconclusive call is a rough fit, not a confirmed value. Some structures have more than one record in an assay (separate samples or runs), and their calls can disagree.

Assay: qHTS Assay for Inhibitors of Hepatitis C Virus (HCV)
Conditions: Huh7.5.1 HCVcc-Cre (HCVcc is cell-culture hepatitis C virus) infection, luciferase reporter, 44 h; activity change, negative = inhibition: at 41.8 µM (top of the series)
Procedure, shortened: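 After 44 h co-culture of compound, cells and HCVcc-Cre (~0.5 moi), substrate is added for 15 min at room temperature and luciferase measured over 15 sec. Cells were seeded at 1,000/well and pre-cultured 4 h.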
On the % scale 0 is the no-effect control and ±100 the full control effect; potency means the concentration at half of the fitted maximal effect; tags describe the fitted curve by direction and shape.

Structure (SMILES) | Potency | activity change, negative = inhibition
Cc1ccc(C)c(S(=O)(=O)N2CCN(C(=O)Cn3c(C(F)(F)F)nc4ccccc43)CC2)c1 | inconclusive: 14.1 µM [inhibitor, single point] | 
COc1ccc(Nc2cc(C)nc3ccccc23)cc1 | inconclusive: 31.6 µM [inhibitor, single point] | 
C/C(=N\NC(=O)c1ccn(C)n1)c1ccc(NC(=O)c2cccc(F)c2)cc1 | inconclusive: 7.94 µM [inhibitor, partial curve] | 
CCn1cc(C(=O)c2cccs2)c2ccccc21 | inconclusive: 22.4 µM [inhibitor, single point] | 
C=C(C)CN(CC)Cc1c(C(=O)N(C)CCCC)nc2ccccn12 |  | inactive: 0.183%
CCOC(=O)c1nn(-c2ccccc2)c(C#N)c1NC(=O)c1nn(CC)cc1Br | inconclusive: 6.31 µM [inhibitor, partial curve] | 
CCC(=O)c1ccccc1OCCCN1CCC(Cc2ccccc2)CC1 | inconclusive: 12.6 µM [inhibitor, single point] | 
COc1cccc(OC)c1C(=O)NC(=S)N1CCN(c2ccc(C(F)(F)F)cc2[N+](=O)[O-])CC1 | inconclusive: 31.6 µM [inhibitor, single point] | 
Cc1cc(C)n2c(Nc3ccc4c(c3)OCCO4)c(-c3ccccc3)nc2n1 |  | inactive: -15.4%
COc1ccc(-c2c(-c3cc(OC)cc(OC)c3)n(C)c3ccc(-c4ccc(N(C)C)nc4)cc23)cc1 | inconclusive: 31.6 µM [inhibitor, single point] | 
O=C(OCC(=O)N1CCCCC1)c1ccc(OC(F)(F)F)cc1 |  | inactive: -0.311%
CC(=O)Nc1cccc2ncccc12 |  | inactive: 18.4%
COc1ccccc1/C(C)=N/Oc1cc(N)cc([N+](=O)[O-])c1 | inconclusive: 10 µM [inhibitor, partial curve] | 
CCOc1cc(/C=N\NC(=O)OC(C)(C)C)ccc1OC(=O)c1ccco1 |  | inactive: 4.34%
CCOc1ccc(-c2cccc(NC(=O)c3ccco3)c2)nn1 |  | inactive: -0.0323%
Cc1ccccc1C(=O)NC(C)c1ccc2c(c1)CCCC2 (configuration not stated) | inconclusive: 3.98 µM [inhibitor, single point] | 
COc1ccc(CNc2oc(COc3ccc(Cl)cc3)nc2C#N)cc1 | inconclusive: 31.6 µM [inhibitor, single point] | 
COc1cc(/C=N\NC(=O)c2ccc(-c3ccccc3)cc2)cc(OC)c1O | inconclusive: 11.2 µM [inhibitor, partial curve] | 
Cc1cc(C)c(C(=O)CSc2nnc(-c3ccccc3Br)o2)cc1C |  | inactive: 0.564%
Cc1ccccc1OCC(=O)NCCCNC(=O)c1ccccn1 |  | inactive: 21.9%
CC1(C)CC2CC(C)(CN2C(=O)COC(=O)c2cc(Cl)cc(Cl)c2N)C1 (configuration not stated) | inconclusive: 31.6 µM [inhibitor, single point] | 
Cc1ccc(-c2nc(CSc3nc4ccccc4c(=O)n3CCO)cs2)cc1 | inconclusive: 31.6 µM [inhibitor, single point] | 
CCN1CCN(CCCNC(=O)c2cc3c(=O)[nH]c4ccccc4c3s2)CC1 | inconclusive: 22.4 µM [inhibitor, single point] | 
CN(C)CCC(c1ccc(Br)cc1)c1ccccn1 (configuration not stated) | inconclusive: 12.6 µM [inhibitor, single point] and inconclusive: 14.1 µM [inhibitor, partial curve] | 

Structure (SMILES) | Potency | activity change, negative = inhibition
O=C(COC(=O)C1CC1)NCCc1ccc(Cl)cc1 |  | inactive: -10.7%
Oc1ccc(C[C@@H]2CNCCN2CCc2cccc(F)c2)cc1 |  | inactive: 22.6%
CCOC(=O)N1CCN(CC(=O)Nc2ccccc2C(=O)Nc2ccccc2)CC1 |  | inactive: -1.71%
CN1C(=O)/C(=C/c2cn(CC(=O)N3CCCCC3)c3ccccc23)NC1=S | inconclusive: 12.6 µM [inhibitor, partial curve] | 
Cc1ccc(N(C(=O)Cn2nnc(-c3ccccc3)n2)C(C(=O)NC2CCCCC2)c2ccccn2)cc1C (configuration not stated) | inconclusive: 0.562 µM [inhibitor, partial curve, poor fit] | 
CCN1CCN(CC(=O)Nc2sc3c(c2C#N)CCC3)CC1 | inconclusive: 14.1 µM [inhibitor, single point] | 
CCOC(=O)c1c(NC(=O)COc2ccccc2)sc2c1CC(C)(C)NC2(C)C | inconclusive: 2.24 µM [inhibitor, full curve] | 
NC(=O)c1c(Br)n(C2OC(CO)C(O)C2O)c2ncnc(N)c12 (configuration not stated) | inconclusive: 1.78 µM [inhibitor, full curve] | 
COC(=O)c1c(NC(=O)C(=O)NCC2CCCO2)sc2c1CC(C)(C)OC2 (configuration not stated) | inconclusive: 10 µM [inhibitor, partial curve, poor fit] | 
Cc1ccc2nc(N(CCN(C)C)C(=O)c3cc(Cl)sc3Cl)sc2c1 |  | inactive: -10.9%
O=C(c1ccc(NS(=O)(=O)/C=C/c2ccccc2)cc1)N1CCCCC1 | inconclusive: 31.6 µM [inhibitor, single point] | 
CC(C)CCSc1nc(N2CCOCC2)c2c(c1C#N)CC(C)(C)OC2 | inconclusive: 25.1 µM [inhibitor, single point] | 
CCS(=O)(=O)c1nc(S(=O)(=O)c2ccc(C)cc2)c(NCc2ccccn2)s1 |  | inactive: 1.54%
CN(C)c1ccc(NS(=O)(=O)c2ccc(-c3csnn3)cc2)cc1 | inconclusive: 5.62 µM [inhibitor, single point] | 
CCc1ccc(NC(=O)CN2CCCN(S(=O)(=O)c3ccc(F)cc3)CC2)cc1 | inconclusive: 31.6 µM [inhibitor, single point] | 
CCOC(=O)N1CCC(N(C(=O)Nc2ccc(Cl)c(Cl)c2)C(C)CC)CC1 (configuration not stated) | active: 10 µM | 
CC(NC(=O)/C(C#N)=C/c1ccc(Cl)c([N+](=O)[O-])c1)c1ccccc1 (configuration not stated) | active: 35.5 µM | 
Cc1ccsc1C(=O)Nc1ccc(O)c(-c2nc3ccccc3s2)c1 | inconclusive: 31.6 µM [inhibitor, single point] | 
COc1ccc([C@H]2CC(=O)C=C(c3ccc(F)cc3OCc3ccccc3)C2)cc1 | inconclusive: 0.562 µM [inhibitor, full curve, poor fit] | 
CC(C)(C)OC(=O)C(Cc1ccc(OC(C)(C)C)cc1)NC(=O)CNC(=O)OCc1ccccc1 (configuration not stated) |  | inactive: -29.5%
CC(=O)C1CCC2C3C(N4CC4)CC4=CC(=O)CCC4(C)C3CCC12C (configuration not stated) | inconclusive: 31.6 µM [inhibitor, single point] | 
N=C1SCC(=O)N1c1ncc(Cc2cccc(Cl)c2)s1 | inconclusive: 11.2 µM [inhibitor, single point] | 
O=C1c2ccccc2/C(=C\C#Cc2ccccn2)N1c1ccccc1 | inconclusive: 7.08 µM [inhibitor, partial curve] | 
O=C(NCc1cccnc1)c1ccc(-c2cc3ccccc3oc2=O)cc1 | inconclusive: 14.1 µM [inhibitor, single point] | 

Structure (SMILES) | Potency | activity change, negative = inhibition
COc1cc(OC)cc(-c2nc3ccccc3c(=O)o2)c1 |  | inactive: 10.7%
C=CCn1c(COc2ccccc2F)nnc1SCC(=O)Nc1cc2oc3ccccc3c2cc1OC | active: 7.08 µM | 
COc1ccc(CN(C)CC(=O)Nc2cccc(S(=O)(=O)N3CCCC3)c2)cc1F | inconclusive: 22.4 µM [inhibitor, single point] | 
CC(=O)c1sc(NC(=O)CN2C(=O)NC3(CCCC3)C2=O)nc1-c1ccccc1 | inconclusive: 1 µM [inhibitor, full curve] | 
COc1ccc(C(=O)C[n+]2ccc(N)c(C)c2C)cc1 | active: 2.24 µM | 
c1ccc(-c2ccc(C(c3ccccc3)n3ccnc3)cc2)cc1 (configuration not stated) | inconclusive: 31.6 µM [inhibitor, single point] | inactive: 7.68% [at 8.37 µM]
Oc1c(Cl)cc(Cl)c2cccnc12 |  | inactive: -21.2%
CCNC(=S)N/N=C(\C)c1ccc2ccccc2c1OC(F)F | inconclusive: 12.6 µM [inhibitor, single point] | 
O=C(NCc1ccccc1)C(=O)NCC1COc2ccccc2O1 (configuration not stated) | inconclusive: 6.31 µM [inhibitor, partial curve] | 
CC(=O)c1sc(Nc2nc3ccc(F)cc3s2)nc1C |  | inactive: -17.4%
CCOc1ccccc1CNc1nc2ccccc2n1C |  | inactive: 4.08%
Cc1ccc(S(=O)(=O)N(C)c2ccc(OC(C)C(=O)N(C)c3ccccc3)cc2)cc1 (configuration not stated) | active: 11.2 µM | 
O=C(Nc1ccccn1)c1ccc(Cl)c(S(=O)(=O)N2CCc3ccccc32)c1 | inconclusive: 22.4 µM [inhibitor, single point] | 
CC1(C)NC(=O)N(CC(=O)N2CCN(S(=O)(=O)c3ccccc3F)CC2)C1=O |  | inactive: 18.4%
Cc1nnc(N/N=C/c2ccccn2)[nH]c1=O | active: 3.55 µM | 
CN(C(=O)c1ccccc1)c1nc2ccccc2s1 |  | inactive: -17.1%
COc1cc(NC(=O)COc2cccc(OC)c2)cc(OC)c1 |  | inactive: -21.3%
CCOC(=S)SCC(=O)Nc1ncc(C)s1 | inconclusive: 5.62 µM [inhibitor, single point] | 
CCN(C[C@H]1N[C@@](Cc2ccccc2)(C(=O)OC)[C@H]2C(=O)N(C)C(=O)[C@@H]12)S(=O)(=O)c1ccc(C(C)(C)C)cc1 | inconclusive: 1 µM [inhibitor, full curve, poor fit] | 
Fc1ccc(N2CCN(Cc3cnc(Oc4ccc(Br)cc4)s3)CC2)cc1 | inconclusive: 14.1 µM [inhibitor, single point] | 
CC1CN(C(=O)COc2ccc3ccccc3c2Br)CC(C)O1 (configuration not stated) | inconclusive: 22.4 µM [inhibitor, single point] | 
S=C(NCCc1ccccc1)N/N=C/c1ccccc1Cl |  | inactive: 4.91%
O=C(Nc1cccc(-n2cnnn2)c1)c1ccc(C(F)(F)F)cc1 | inconclusive: 8.91 µM [inhibitor, partial curve] | 
